# Reference: PMC4336329 (PLoS ONE, 2015)
# In all, about 310,000 compounds went through this assay and about 14,000 (4.5%) showed an effect of 50% or more. Effects have a minus sign here. The list shows a part of the results.
# Molecular target: human ether-à-go-go-related gene (hERG) potassium channel (human, UniProt Q12809)
# Test: primary screen, population patch clamp on CHO cells stably expressing hERG
# 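Note: peak tail current of the secondary pulse compared with the same well before compound.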
# Chain of human ether-à-go-go-related gene (hERG) potassium channel (Q12809 whole entry, looked up): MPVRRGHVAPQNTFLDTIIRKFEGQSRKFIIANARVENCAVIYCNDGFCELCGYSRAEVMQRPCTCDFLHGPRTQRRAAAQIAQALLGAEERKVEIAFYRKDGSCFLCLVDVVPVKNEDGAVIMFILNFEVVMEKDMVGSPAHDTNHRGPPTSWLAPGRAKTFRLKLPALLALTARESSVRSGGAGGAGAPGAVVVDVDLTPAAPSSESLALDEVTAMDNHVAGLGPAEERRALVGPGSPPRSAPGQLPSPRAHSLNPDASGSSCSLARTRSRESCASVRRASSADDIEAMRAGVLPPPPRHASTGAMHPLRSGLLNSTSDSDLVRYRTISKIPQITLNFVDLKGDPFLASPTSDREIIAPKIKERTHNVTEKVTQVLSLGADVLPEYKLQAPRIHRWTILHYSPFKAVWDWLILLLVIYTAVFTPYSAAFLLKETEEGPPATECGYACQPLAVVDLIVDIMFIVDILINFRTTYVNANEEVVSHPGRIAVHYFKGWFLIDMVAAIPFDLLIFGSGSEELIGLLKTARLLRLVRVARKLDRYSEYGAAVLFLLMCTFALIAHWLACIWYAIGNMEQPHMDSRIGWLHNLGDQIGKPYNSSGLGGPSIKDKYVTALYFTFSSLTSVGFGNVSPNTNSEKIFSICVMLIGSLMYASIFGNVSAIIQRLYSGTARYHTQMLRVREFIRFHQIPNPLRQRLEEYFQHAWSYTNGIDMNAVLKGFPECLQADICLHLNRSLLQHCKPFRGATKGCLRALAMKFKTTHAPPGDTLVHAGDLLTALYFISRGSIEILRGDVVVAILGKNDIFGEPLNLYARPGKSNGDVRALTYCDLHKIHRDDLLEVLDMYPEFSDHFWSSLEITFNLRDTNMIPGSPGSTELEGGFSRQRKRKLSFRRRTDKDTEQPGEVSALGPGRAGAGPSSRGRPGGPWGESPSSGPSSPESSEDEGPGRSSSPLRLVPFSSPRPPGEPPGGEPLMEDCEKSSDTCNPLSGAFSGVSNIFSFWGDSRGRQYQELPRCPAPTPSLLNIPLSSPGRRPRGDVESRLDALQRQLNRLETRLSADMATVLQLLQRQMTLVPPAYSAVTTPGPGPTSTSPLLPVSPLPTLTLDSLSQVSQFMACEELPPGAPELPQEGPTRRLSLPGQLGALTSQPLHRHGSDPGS
row,Compound,"hERG current change (%, negative = inhibition) at 10uM [%]"
1,CC1CC(C)(C)NC(=S)N1CC(=O)NCc1ccc(F)cc1 (stereo not drawn),0.792
2,CCC1CCCCN1S(=O)(=O)c1ccc(NC(=O)c2cccs2)cc1 (stereo not drawn),-1.94
3,Cc1cccc(NC(=O)CN2C(=O)S/C(=C\c3cc(C)n(C)c3C)C2=O)c1,-10.7
4,COc1ccccc1N1CCN(CC(=O)Nc2ccc(C)c(F)c2)CC1,-23.1
5,CC(C)CNC(=O)C1CCN(c2ccc(S(=O)(=O)N3CCOCC3)cc2[N+](=O)[O-])CC1,-38.8
6,CC1(C)Cc2ccccc2C2=C(C(=O)N3CCCCCC3)C(=O)C(=O)N21,23.2
7,CCOc1cc(C(=O)CCC(=O)OCC(=O)N2c3ccccc3NC(=O)C2(C)C)ccc1O,-15.5
8,COc1cc(NC(=O)CN2C(=O)C(c3ccccc3)=NC23CCCCCC3)cc(OC)c1,26.3
9,Cc1ccc(C(=O)NCC(=O)N2CCN(S(=O)(=O)c3cccs3)CC2)s1,-0.929
10,O=C(Nc1ccccc1)c1ccc(C(=O)Nc2ccccc2)nc1,26.2
11,O=C(N/N=C/c1cc2c(cc1Br)OCO2)c1cccnc1,20.9
12,COc1ccc(NC(=O)CN(C)CC(=O)NC(=O)NC2CCCCC2)cc1,-9.26
13,Cc1ccccc1N(CC(=O)NCCc1ccccc1)C(=O)c1ccc(N2CCCC2)nc1,-10.5
14,CC(Sc1nnc(Nc2ccccc2)s1)C(=O)Nc1nc(-c2ccccc2)cs1 (stereo not drawn),7.84
15,COc1ccc(C(=O)C2CCN(CC(=O)Nc3ccc(OC)cc3OC)CC2)cc1,-18.1
16,S=C(NCCc1ccccc1)N1CCn2cccc2C1c1ccncc1 (stereo not drawn),-36.3
17,Cc1ccc(C)c(OCC(=O)NNC(=O)c2ccc(=O)[nH]c2)c1,9.29
18,Cc1[nH]c2ccc(F)cc2c1CCN(Cc1ccco1)C(=S)NC(C)(C)C,11.6
19,O=C(Cc1cc(=O)oc2cc(O)ccc12)NC(Cc1ccc(Cl)cc1)C(=O)O (stereo not drawn),23.5
20,COC(=O)c1nnn(CC(=O)NC(=O)Nc2cccc(Cl)c2C)c1C(=O)OC,-0.536
21,CN(C)CCn1c2c(c(SCC(=O)Nc3cccc(C(F)(F)F)c3)nc1=O)CCCC2,-68.8
22,COc1cccc(OCc2nn[nH]n2)c1,21.2

row,Compound,"hERG current change (%, negative = inhibition) at 10uM [%]"
1,CCc1nnc(NS(=O)(=O)c2ccc(N/C=C(\C=O)c3nc4cc(Cl)ccc4o3)cc2)s1,-15.8
2,Cc1nn(Cc2nc(-c3cccs3)no2)c(C)c1Br,-0.547
3,COc1cc(OC)cc(C(=O)N2CCN(C(=O)COc3ccc4ccccc4c3)CC2)c1,-64.8
4,CCCC(=O)N/N=C1\CS(=O)(=O)N(C)c2ccsc21,18.4
5,CCOC(=O)c1oc2ccc(S(=O)(=O)N3CCC(C)CC3)cc2c1C,-6
6,Fc1ccc(CSc2nnc(-c3cccs3)o2)cc1,-14.4
7,CCOc1cc(/C=C2/SC(=S)NC2=O)ccc1OC(=O)c1ccco1,20.6
8,CC(=O)c1c(N2CCN(CCO)CC2)nc(=S)n(-c2ccccc2)c1C,5.13
9,COc1ccc(OC)c(NC(=O)CN(c2ccc(C(C)C)cc2)S(=O)(=O)c2c(C)noc2C)c1,2.13
10,COc1ccc(NC(=O)N2CCCC(c3ccccc3)C2)cc1 (stereo not drawn),-19.4
11,CCC(=NCC1CCCO1)c1c(O)n(-c2ccccc2)c(=O)[nH]c1=O (stereo not drawn),-6.64
12,O=C(NCC1CCCO1)c1sc2cc(Cl)ccc2c1Cl (stereo not drawn),-6.32
13,CCC(C)(C)NC(=O)c1ccc2c(c1)OCCO2,14.8
14,O=C(COc1cccc2cccnc12)Nc1ccccc1,-18.5
15,CCCCc1nnc(SCC(=O)Nc2nccs2)n1CC,4.93
16,CN(C)c1ccc(/C=C2\CCCc3c2nc2ccccc2c3C(=O)O)cc1,15.3
17,COc1ccc(Br)c(C(=O)Nc2ccc(F)cc2)c1,-0.956
18,O=C(CSc1nnc2n(C3CCCC3)c(=O)c3ccccc3n12)N1CCCCCC1,-51.1
19,O=C(Nc1ccc(Cl)c(Cl)c1)OCc1cnc(Cl)s1,-1.93
20,CCOC(=O)C1=C(C)N(C)C(=S)NC1c1ccc(Cl)cc1 (stereo not drawn),-21.5
21,COc1ccc(CC(=O)Nn2c(-c3ccccc3)nc3ccccc3c2=O)cc1,-8.84
22,CN(C)C(=O)c1ccccc1Sc1ccc(Cl)cc1Cl,-70.4

row,Compound,"hERG current change (%, negative = inhibition) at 10uM [%]"
1,CC(C)(C)NC(=O)C(=O)NNC(=O)C12CC3CC(CC(C3)C1)C2,14.6
2,COC(=O)c1ccc(COC(=O)C2CC(O)CN2S(=O)(=O)c2ccc([N+](=O)[O-])cc2)cc1 (stereo not drawn),-34.7
3,Nc1nc(SCC(=O)Nc2ncc(C(F)(F)F)cc2Cl)n[nH]1,11.9
4,CC(CCc1ccccc1)NC(C)C(O)c1ccc(O)cc1.Cl (stereo not drawn),-65.3
5,CCOP(=O)(OCC)OCC,16.9
6,Cc1cc(O)ccc1N/C=C(\C#N)c1nc2ccccc2o1,10.2
7,O=C(c1cc2ncc(Br)cn2n1)N1CCOCC1,12.1
8,COc1ccc(-c2cc(CCCC(=O)NCCc3cc(OC)ccc3OC)no2)cc1,-6.49
9,Cc1ccc2nc(C)cc(N/N=C/c3cccnc3)c2c1,-4.35
10,Cc1ccccc1CSc1n[nH]c(NS(=O)(=O)c2ccccc2)n1,10.3
11,Cc1ccc(-c2nnc(-c3ccccc3Br)o2)cc1,-5.68
12,O=C(C[n+]1cccc(NC(=O)c2ccccc2)c1)c1cccc([N+](=O)[O-])c1.[Br-],-76.3
13,CCOC(=O)N1CCC(N2C(=O)c3ccc(C(=O)Nc4cccc(OC)c4)cc3C2=O)CC1,10.6
14,COc1ccc(NC(=O)c2cc(-c3ccc(C)cc3)on2)cc1OC,19.4
15,CCOc1ccc(S(=O)(=O)N(CC)CC(=O)N2CCOCC2)cc1C,6.73
16,COc1ccc(N(C)S(=O)(=O)c2cccc(C(=O)NC3CCCC(C)C3C)c2)cc1 (stereo not drawn),-35
17,COc1ccc(O)c(CN2CCN(CCc3ccccc3)C(CCO)C2)c1 (stereo not drawn),-54.6
18,CCCn1c(Sc2nc3c(c(=O)[nH]c(=O)n3C)n2CCC)nc2c1c(=O)[nH]c(=O)n2C,6.39
19,Cc1ccc(S(=O)(=O)N2CCN(C(=O)COC(=O)CCCOc3ccccc3)CC2)c(C)c1,-8.13
20,CN(C)c1cc[n+](CC(=O)c2cccs2)cc1.[Cl-],9.45
21,O=[N+]([O-])c1ccc(Cl)cc1Sc1cccc2cccnc12,6.39
22,COc1ccccc1N(C)S(=O)(=O)c1ccc(C)c(C(=O)NCc2ccccn2)c1,-16.5

row,Compound,"hERG current change (%, negative = inhibition) at 10uM [%]"
1,c1cc2c3c(cccc3c1)NC1(CCC3(CC1)Nc1cccc4cccc(c14)N3)N2,17.8
2,COc1ccc(NS(=O)(=O)c2cccc(C(=O)NCC3(N(C)C)CCCCC3)c2)cc1,-40.6
3,COCCCn1c(-c2ccco2)nc2ccccc2c1=O,-16
4,Cc1cc(C)cc(N2C(=O)NC(=O)/C(=C\c3cccn3-c3ccccc3)C2=O)c1,2.96
5,CC(C)NC(=S)NN=C1CCC(c2ccccc2)CC1 (stereo not drawn),12.3
6,COc1ccc(NC(=O)Nc2nc3c(s2)CCCC3)cc1,-26.8
7,O=C(COC(=O)c1ccc(F)cc1F)NC1CC1,23
8,O=C1N(Cc2cccc(Cl)c2)C[C@@H]2C[C@@H](c3ccccn3)N3CCC[C@@]123,-18.5
9,O=C(Nc1cccc([N+](=O)[O-])c1)Nc1ccc(Cl)cn1,10.8
10,CCNC(=S)Nc1cc(OC)c(NC(=O)c2ccco2)cc1OC,1.21
11,CCOC(=O)c1c(C)oc2ccc(OS(C)(=O)=O)cc12,1.04
12,Cc1ccc(CONC(=O)c2cccc([N+](=O)[O-])c2)cc1,-23.5
13,Cc1ccc(N2CC(C(=O)Nc3nnc(SCC(=O)NCC4CCCO4)s3)CC2=O)cc1C (stereo not drawn),-1.56
14,O=c1c2c(nc3c(-c4ccc(Cl)cc4)c[nH]n13)CCCC2,-19.9
15,CC1=C(C(N)=O)C(c2ccc(Br)cc2)n2nc(CCCO)nc2N1 (stereo not drawn),21.9
16,Cc1ccc(Cn2c(=O)c3ccccc3n3c(CCC(=O)NCCN4CCOCC4)nnc23)cc1,-19.5
17,Cc1ccc(CN2CC(C(=O)N3CCN(S(=O)(=O)c4ccc(C(C)C)cc4)CC3)CC2=O)cc1 (stereo not drawn),-30
18,O=C(/C=C/c1ccc(Cl)cc1)Nc1ccc(Br)cn1,10.5
19,CC(C)(C)c1ccc(NC(=O)NC2CCCc3ccccc32)cc1 (stereo not drawn),12.7
20,O=C(NCc1ccccc1)Nc1cc(Cl)ccc1Cl,17.4
21,C#CC[N+]1(C)[C@@H]2CC[C@H]1CC(OC(=O)C(CO)c1ccccc1)C2.[Br-] (stereo partly drawn),8.31
